Experimental data: paper PMC5540273 (PLoS ONE, 2017)
The strong results were mostly taken out for another list; the other results follow.

Each molecule was assayed on CLK4. Details: concentration: 1 μM,replicates: in singlicate; n = 1.
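Further: KINOMEscan kinase panel screen.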

`O=C1NC(=O)C(c2ccc(Cl)cc2)=C1Nc1ccccc1` [SB-317661] and `O=C1NC(=O)c2c1c(-c1ccccc1)cc1[nH]c3ccc(O)cc3c21` are the same in “%Inh” value: 0% for the first, 0% for the second.

With `CS(=O)(=O)c1ccccc1-c1nc(-c2ccc(F)cc2)c(-c2ccncc2)[nH]1` [SB-213663] the “%Inh” value was 8%.

These molecules were tested on CSF1R-autoinhibited. Details: concentration: 1 μM,replicates: in singlicate; n = 1.

Going from `O=C1NC(=O)C(c2ccc(Cl)cc2)=C1Nc1cccc(C(=O)O)c1` [SB-360737] to `O=C1NC(=O)C(c2ccc(Cl)cc2)=C1Nc1cccc(O)c1` [SB-333613], the “%Inh” value rises from 0% to 29%.

First: O=C1NC(=O)C(c2ccccc2Cl)=C1Nc1cccc(C(=O)O)c1 [SB-390526]
Second: O=C1NC(=O)C(c2ccccc2Cl)=C1Nc1ccccc1 [SB-376715]
The “%Inh” value of the first is lower: 10% for the first, 16% for the second.

`O=C1NC(=O)C(c2ccc(Cl)cc2)=C1Nc1ccc(O)c(Cl)c1` [SB-405367] and `O=C1NC(=O)C(c2ccc(Cl)cc2)=C1Nc1ccccc1` [SB-317661] are the same in “%Inh” value: 0% for the first, 0% for the second.

First: O=C1NC(=O)C(c2ccccc2)=C1Nc1cc(Cl)c(O)c(Cl)c1 [SB-390530]
Second: O=C1NC(=O)C(c2ccccc2)=C1Nc1ccc(Cl)c(C(=O)O)c1 [SB-390532]
The “%Inh” value of the first is lower: 19% for the first, 22% for the second.

`Cc1ccc(C)c(Oc2nccc(-c3c(-c4ccc(F)cc4)ncn3C3CCNCC3)n2)c1.O=C(O)C(F)(F)F.O=C(O)C(F)(F)F.O=C(O)C(F)(F)F` [SB-284852] and `Cc1cc(C)cc(Oc2nccc(-c3c(-c4ccc(F)cc4)ncn3C3CCNCC3)n2)c1.O=C(O)C(F)(F)F.O=C(O)C(F)(F)F.O=C(O)C(F)(F)F` [SB-284851] are the same in “%Inh” value: 0% for the first, 0% for the second.

Going from `O=C(O)c1ccc(-c2nc(-c3ccc(F)cc3)c(-c3ccncc3)[nH]2)cc1` [SB-202620] to `CS(=O)(=O)c1ccccc1-c1nc(-c2ccc(F)cc2)c(-c2ccncc2)[nH]1` [SB-213663], the “%Inh” value rises from 12% to 38%.

Compared with `COc1cccc(C2=C(Nc3ccc(SC)cc3)C(=O)NC2=O)c1` [SB-331032], `CSc1ccc(NC2=C(c3cccc(Cl)c3)C(=O)NC2=O)cc1` [SB-341528] is lower in “%Inh” value: 32% for the first, 0% for the second.

`COc1ccc(C2=C(Nc3cccc(Cl)c3)C(=O)NC2=O)cc1` [SB-326892] and `O=C1NC(=O)c2c1c(-c1ccccc1)cc1[nH]c3ccc(O)cc3c21` are the same in “%Inh” value: 0% for the first, 0% for the second.

The molecules below were run on CSF1R. Details: concentration: 1 μM,replicates: in singlicate; n = 1.

Going from `O=C1NC(=O)C(c2ccc(Cl)cc2)=C1Nc1cccc(C(=O)O)c1` [SB-360737] to `O=C1NC(=O)C(c2ccc(Cl)cc2)=C1Nc1cccc(O)c1` [SB-333613], the “%Inh” value falls from 16% to 10%.

`O=C1NC(=O)C(c2ccccc2Cl)=C1Nc1cccc(C(=O)O)c1` [SB-390526] and `O=C1NC(=O)C(c2ccccc2Cl)=C1Nc1ccccc1` [SB-376715] are the same in “%Inh” value: 0% for the first, 0% for the second.

First: O=C1NC(=O)C(c2ccc(Cl)cc2)=C1Nc1ccc(O)c(Cl)c1 [SB-405367]
Second: O=C1NC(=O)C(c2ccc(Cl)cc2)=C1Nc1ccccc1 [SB-317661]
The “%Inh” value of the first is higher: 6% for the first, 0% for the second.

`O=C1NC(=O)C(c2ccccc2)=C1Nc1cc(Cl)c(O)c(Cl)c1` [SB-390530] and `O=C1NC(=O)C(c2ccccc2)=C1Nc1ccc(Cl)c(C(=O)O)c1` [SB-390532] are the same in “%Inh” value: 0% for the first, 0% for the second.

`Cc1ccc(C)c(Oc2nccc(-c3c(-c4ccc(F)cc4)ncn3C3CCNCC3)n2)c1.O=C(O)C(F)(F)F.O=C(O)C(F)(F)F.O=C(O)C(F)(F)F` [SB-284852] and `Cc1cc(C)cc(Oc2nccc(-c3c(-c4ccc(F)cc4)ncn3C3CCNCC3)n2)c1.O=C(O)C(F)(F)F.O=C(O)C(F)(F)F.O=C(O)C(F)(F)F` [SB-284851] are the same in “%Inh” value: 0% for the first, 0% for the second.

Going from `O=C(O)c1ccc(-c2nc(-c3ccc(F)cc3)c(-c3ccncc3)[nH]2)cc1` [SB-202620] to `CS(=O)(=O)c1ccccc1-c1nc(-c2ccc(F)cc2)c(-c2ccncc2)[nH]1` [SB-213663], the “%Inh” value falls from 20% to 3%.

Going from `COc1cccc(C2=C(Nc3ccc(SC)cc3)C(=O)NC2=O)c1` [SB-331032] to `CSc1ccc(NC2=C(c3cccc(Cl)c3)C(=O)NC2=O)cc1` [SB-341528], the “%Inh” value rises from 0% to 8%.

Compared with `COc1ccc(C2=C(Nc3cccc(Cl)c3)C(=O)NC2=O)cc1` [SB-326892], `O=C1NC(=O)c2c1c(-c1ccccc1)cc1[nH]c3ccc(O)cc3c21` is higher in “%Inh” value: 0% for the first, 29% for the second.

What follows are molecules tested on CSK. Details: concentration: 1 μM,replicates: in singlicate; n = 1.

Going from `O=C1NC(=O)C(c2ccc(Cl)cc2)=C1Nc1cccc(C(=O)O)c1` [SB-360737] to `O=C1NC(=O)C(c2ccc(Cl)cc2)=C1Nc1cccc(O)c1` [SB-333613], the “%Inh” value rises from 0% to 1%.

First: O=C1NC(=O)C(c2ccccc2Cl)=C1Nc1cccc(C(=O)O)c1 [SB-390526]
Second: O=C1NC(=O)C(c2ccccc2Cl)=C1Nc1ccccc1 [SB-376715]
The “%Inh” value of the first is lower: 0% for the first, 4% for the second.

Going from `O=C1NC(=O)C(c2ccc(Cl)cc2)=C1Nc1ccc(O)c(Cl)c1` [SB-405367] to `O=C1NC(=O)C(c2ccc(Cl)cc2)=C1Nc1ccccc1` [SB-317661], the “%Inh” value rises from 0% to 1%.

`O=C1NC(=O)C(c2ccccc2)=C1Nc1cc(Cl)c(O)c(Cl)c1` [SB-390530] and `O=C1NC(=O)C(c2ccccc2)=C1Nc1ccc(Cl)c(C(=O)O)c1` [SB-390532] are the same in “%Inh” value: 0% for the first, 0% for the second.

Going from `Cc1ccc(C)c(Oc2nccc(-c3c(-c4ccc(F)cc4)ncn3C3CCNCC3)n2)c1.O=C(O)C(F)(F)F.O=C(O)C(F)(F)F.O=C(O)C(F)(F)F` [SB-284852] to `Cc1cc(C)cc(Oc2nccc(-c3c(-c4ccc(F)cc4)ncn3C3CCNCC3)n2)c1.O=C(O)C(F)(F)F.O=C(O)C(F)(F)F.O=C(O)C(F)(F)F` [SB-284851], the “%Inh” value rises from 0% to 6%.

`O=C(O)c1ccc(-c2nc(-c3ccc(F)cc3)c(-c3ccncc3)[nH]2)cc1` [SB-202620] and `CS(=O)(=O)c1ccccc1-c1nc(-c2ccc(F)cc2)c(-c2ccncc2)[nH]1` [SB-213663] are the same in “%Inh” value: 0% for the first, 0% for the second.

`COc1cccc(C2=C(Nc3ccc(SC)cc3)C(=O)NC2=O)c1` [SB-331032] and `CSc1ccc(NC2=C(c3cccc(Cl)c3)C(=O)NC2=O)cc1` [SB-341528] are the same in “%Inh” value: 0% for the first, 0% for the second.

First: COc1ccc(C2=C(Nc3cccc(Cl)c3)C(=O)NC2=O)cc1 [SB-326892]
Second: O=C1NC(=O)c2c1c(-c1ccccc1)cc1[nH]c3ccc(O)cc3c21
The “%Inh” value of the first is lower: 0% for the first, 13% for the second.
